About 14,000 (4.5%) of roughly 310,000 compounds showed an effect of 50% or more. The effect is printed as a negative number. Some of the results follow.
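Note: peak tail current of the secondary pulse compared with the same well before compound.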

The target of this assay is human ether-à-go-go-related gene (hERG) potassium channel (human, UniProt Q12809). As to the kind of experiment: primary screen, population patch clamp on CHO cells stably expressing hERG.
human ether-à-go-go-related gene (hERG) potassium channel, sequence (Q12809 whole entry, looked up): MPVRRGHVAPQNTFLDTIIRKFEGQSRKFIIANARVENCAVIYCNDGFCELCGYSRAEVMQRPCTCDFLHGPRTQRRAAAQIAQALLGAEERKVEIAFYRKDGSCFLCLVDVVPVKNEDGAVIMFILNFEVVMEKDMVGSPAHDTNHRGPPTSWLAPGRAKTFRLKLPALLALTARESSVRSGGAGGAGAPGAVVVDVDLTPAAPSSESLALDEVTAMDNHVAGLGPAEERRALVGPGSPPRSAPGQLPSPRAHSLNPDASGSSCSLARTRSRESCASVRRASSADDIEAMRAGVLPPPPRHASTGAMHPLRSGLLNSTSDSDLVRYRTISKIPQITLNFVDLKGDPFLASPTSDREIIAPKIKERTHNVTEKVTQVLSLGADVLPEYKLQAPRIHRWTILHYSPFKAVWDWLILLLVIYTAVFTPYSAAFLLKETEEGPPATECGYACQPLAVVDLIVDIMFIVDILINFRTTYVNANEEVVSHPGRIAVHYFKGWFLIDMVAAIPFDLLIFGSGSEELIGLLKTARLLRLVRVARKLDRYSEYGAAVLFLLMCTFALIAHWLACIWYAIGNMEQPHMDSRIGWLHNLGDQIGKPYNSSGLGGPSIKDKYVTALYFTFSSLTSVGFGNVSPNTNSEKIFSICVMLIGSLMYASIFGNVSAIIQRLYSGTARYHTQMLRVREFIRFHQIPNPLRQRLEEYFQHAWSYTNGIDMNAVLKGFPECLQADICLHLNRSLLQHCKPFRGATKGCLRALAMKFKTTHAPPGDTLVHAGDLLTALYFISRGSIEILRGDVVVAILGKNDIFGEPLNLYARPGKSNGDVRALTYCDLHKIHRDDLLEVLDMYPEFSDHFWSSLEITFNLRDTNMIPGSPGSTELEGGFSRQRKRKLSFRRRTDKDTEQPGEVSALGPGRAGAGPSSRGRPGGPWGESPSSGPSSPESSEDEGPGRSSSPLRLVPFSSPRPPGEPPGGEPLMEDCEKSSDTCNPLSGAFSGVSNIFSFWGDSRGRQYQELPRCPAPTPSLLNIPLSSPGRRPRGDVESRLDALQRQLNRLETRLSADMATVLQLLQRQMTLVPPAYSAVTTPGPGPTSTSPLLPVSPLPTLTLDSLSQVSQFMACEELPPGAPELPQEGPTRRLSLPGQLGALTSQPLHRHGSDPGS
With `Cc1ccc(S(=O)(=O)Cc2nc3ccccc3c(=O)[nH]2)cc1`, the “hERG current change (%, negative = inhibition) at 10uM” value is reported as -13.7%. As for `C=CCN1C(=O)c2ccc(C(=O)N(C)CC(=O)Nc3ccc(OCC)c(OCC)c3)cc2C1=O`, the “hERG current change (%, negative = inhibition) at 10uM” value is listed as -35.5%.

With `CCCN(CCC)Cc1c(C(=O)N/N=C/c2ccc(Br)cc2)nnn1-c1nonc1N`, the “hERG current change (%, negative = inhibition) at 10uM” value is given as -15.3%. Next, `Cc1cc(NC(=O)CCC(=O)N(CC(=O)NC2CCCC2)c2ccc(F)cc2)no1`: -4.83%; `COC(=O)CCCNC(=O)CN1CC(c2ccccc2)CC1=O` (stereo not drawn): -2.25%; `COCCNC(=O)c1cc(OC)c(OC)cc1[N+](=O)[O-]`: 20.1%. In the case of `CCOc1ccc(/C(O)=C2/C(=O)C(=O)N(CC3CCCO3)C2c2ccco2)cc1` (stereo not drawn), the “hERG current change (%, negative = inhibition) at 10uM” value stood at 14.2%. `Cc1cc(C)c(S(=O)(=O)NCc2cccnc2)c(C)c1`: the “hERG current change (%, negative = inhibition) at 10uM” value was -2.97%. With `O=C(Cc1ccc(F)cc1)Nc1ccc(S(=O)(=O)N2CCCC2)cc1`, the “hERG current change (%, negative = inhibition) at 10uM” value was -2.15%.

Consider `O=C1COc2ccc(C(=O)COC(=O)CNC(=O)c3ccco3)cc2N1`, for which the “hERG current change (%, negative = inhibition) at 10uM” value is listed as -12.6%. Next, `COc1ccc(CCN(C)C(=O)CN2C(=O)NC3(CCCCC3C)C2=O)cc1OC` (stereo not drawn): 3.33%. Next, `CCOc1ccc(NC(=O)c2c(C)nn(Cc3ccccc3)c2Cl)cc1`: 12.3%; `CC(C)(C)CC(=O)NCc1cccs1`: -4.18%. `CCCCCN1C=CC=C/C1=C\C=C(C#N)C#N`: the “hERG current change (%, negative = inhibition) at 10uM” value is -70.9%.

As to `COc1ccc(S(=O)(=O)N2CCOc3ccccc32)cc1`, the “hERG current change (%, negative = inhibition) at 10uM” value was -1.55%.

Regarding `COC(=O)CSc1nc(C)cc(C)c1C#N`, the “hERG current change (%, negative = inhibition) at 10uM” value was 19.6%. In the case of `COc1cc(Cl)cc(C2NC(=O)NC(C)=C2C(=O)NCc2ccccc2)c1O` (stereo not drawn), the “hERG current change (%, negative = inhibition) at 10uM” value was -1.46%. Take `Cn1c(=O)oc2cc(S(=O)(=O)N3CCN(c4cccc(Cl)c4)CC3)ccc21`: the “hERG current change (%, negative = inhibition) at 10uM” value is on record as 2.39%.

Consider `COc1ccccc1OCC(=O)NCc1cccs1`, for which the “hERG current change (%, negative = inhibition) at 10uM” value is given as 18.3%. The result for `CCOC(=O)c1ccc(NC(=S)NCc2ccc(F)cc2)cc1` reads 1.35%; that for `Cc1c(NS(=O)(=O)c2cccc(C(=O)NCc3ccncc3)c2)c(=O)n(-c2ccccc2)n1C`, 6.38%. With `CCSc1nnc(NC(=O)CCNS(=O)(=O)c2ccccc2F)s1`, the “hERG current change (%, negative = inhibition) at 10uM” value amounted to 12.1%. In the case of `O=C(Nc1nc(-c2ccc3c(c2)OCO3)cs1)C1COc2ccccc2O1` (stereo not drawn), the “hERG current change (%, negative = inhibition) at 10uM” value is 13.1%. The result for `CCc1cc(C(=O)Cc2ccc(F)cc2)c(O)cc1O` reads -12.7%; that for `COc1cccc(Cn2cc(C(=O)NCCN(C)C)nn2)c1`, 0.176%. As to `C/C(=N\NC(=S)Nc1cccc(C)c1)c1ccco1`, the “hERG current change (%, negative = inhibition) at 10uM” value is -6.35%. The result for `O=C(CSc1nncc(=O)[nH]1)NCc1ccccc1` reads 12.9%. The result for `CSCCC(NC(=O)COc1ccccc1)C(=O)N(C)CC(=O)Nc1ccc(C)cc1` (stereo not drawn) reads -20.6%; that for `CCOC(=O)CC(NS(=O)(=O)c1ccc(OC)c(OC)c1)c1cccc([N+](=O)[O-])c1` (stereo not drawn), -12.4%. The result for `C=CCn1c(SCC(=O)N2CCOCC2)nc2scc(-c3ccco3)c2c1=O` reads -48.8%.

As for `CC(C)(C)C(=O)OCc1nc(-c2ccc(Cl)cc2)cs1`, the “hERG current change (%, negative = inhibition) at 10uM” value is listed as 7.41%. As for `CC(C)CCNC(=O)c1ccc(OC2CCN(S(=O)(=O)N(C)C)CC2)cc1`, the “hERG current change (%, negative = inhibition) at 10uM” value stood at 20.4%. As for `COc1cccc(-c2nc(CS(=O)(=O)CC(=O)NCCc3cc(OC)ccc3OC)c(C)o2)c1`, the “hERG current change (%, negative = inhibition) at 10uM” value is recorded as -7.78%. Next, `O=C(CN(C(=O)c1csnn1)c1ccc(F)cc1)NCc1ccc(F)cc1`: 10.1%; `COc1ccc(COC(=O)C2=C(C)NC(=O)NC2c2ccccc2F)cc1` (stereo not drawn): 21.7%. On to `COc1ccc(C(O)c2nccn2C)cc1` (stereo not drawn), for which the “hERG current change (%, negative = inhibition) at 10uM” value is recorded as -4.68%. Next, `O=C(Cc1ccccc1)Nc1cc([N+](=O)[O-])ccc1N1CCOCC1`: -36.2%; `Cc1nc2nc(-c3ccccc3)cn2nc1C`: -4.11%; `CC1(C)[C@@H](O)CC[C@]2(C)C3C(O)C=C4[C@H]5C[C@@](C)(C(=O)O)CC[C@]5(C)CC[C@]4(C)[C@]3(C)CC[C@@H]12` (stereo partly drawn): 10.7%. The result for `O=C(O)C(=O)O.O=S(=O)(c1ccc(Cl)c(C(F)(F)F)c1)N1CCN(CC(O)COCC2CCCO2)CC1` (stereo not drawn) reads -12.4%; that for `COc1ccc(CCN(C)C(=O)/C=C/c2c(Cl)nc3ccccn23)cc1OC`, 2.79%; that for `O=C([O-])CSc1nc2c(c(C(F)(F)F)n1)CCCC2.[Na+]`, 12.2%. The result for `COc1ccc(NC(=O)c2sc3nc(N4CCOCC4)c4c(c3c2N)CC(C(C)C)OC4)c(OC)c1` (stereo not drawn) reads 16.5%; that for `O=C(Oc1ccc(/C=N/O)cc1)c1ccccc1Cl`, 9.35%. On to `O=c1[nH][nH]c(-c2ccccc2O)c1C(C[N+](=O)[O-])c1ccc(Cl)cc1Cl` (stereo not drawn), for which the “hERG current change (%, negative = inhibition) at 10uM” value worked out at 10.6%.

These data come from article PMC4336329 (PLoS ONE, 2015).
